Measurements published in PubChem BioAssay AID1347165 (National Center for Advancing Translational Sciences (NCATS), 2019).
Screen size: about 220,000 compounds; about 5,700 (2.6%) were called active. This list was built around the results that the source calls inconclusive (neither active nor inactive); the mix of calls is not that of the screen. Calls follow the shape of the dose curve; as a rule, active = well fitted inhibition curve with a large enough effect; inconclusive = small, poorly fitted or top-dose-only effect; inactive = no such curve, though single readings can be large or run the other way. Where the call is inconclusive, the potency comes from a doubtful curve fit.

What follows are compounds tested against Lysine-specific demethylase 5B (Homo sapiens) (UniProt Q9UGL1) (assay: Primary screen for KDM5B Histone Demethylases FDH-coupled qHTS). Details: FDH-coupled NADH fluorescence (FDH is formaldehyde dehydrogenase); series mostly up to 57.7 µM.
UniProt Q9UGL1, sequence (Q9UGL1 whole entry, looked up, the tested form may be a part): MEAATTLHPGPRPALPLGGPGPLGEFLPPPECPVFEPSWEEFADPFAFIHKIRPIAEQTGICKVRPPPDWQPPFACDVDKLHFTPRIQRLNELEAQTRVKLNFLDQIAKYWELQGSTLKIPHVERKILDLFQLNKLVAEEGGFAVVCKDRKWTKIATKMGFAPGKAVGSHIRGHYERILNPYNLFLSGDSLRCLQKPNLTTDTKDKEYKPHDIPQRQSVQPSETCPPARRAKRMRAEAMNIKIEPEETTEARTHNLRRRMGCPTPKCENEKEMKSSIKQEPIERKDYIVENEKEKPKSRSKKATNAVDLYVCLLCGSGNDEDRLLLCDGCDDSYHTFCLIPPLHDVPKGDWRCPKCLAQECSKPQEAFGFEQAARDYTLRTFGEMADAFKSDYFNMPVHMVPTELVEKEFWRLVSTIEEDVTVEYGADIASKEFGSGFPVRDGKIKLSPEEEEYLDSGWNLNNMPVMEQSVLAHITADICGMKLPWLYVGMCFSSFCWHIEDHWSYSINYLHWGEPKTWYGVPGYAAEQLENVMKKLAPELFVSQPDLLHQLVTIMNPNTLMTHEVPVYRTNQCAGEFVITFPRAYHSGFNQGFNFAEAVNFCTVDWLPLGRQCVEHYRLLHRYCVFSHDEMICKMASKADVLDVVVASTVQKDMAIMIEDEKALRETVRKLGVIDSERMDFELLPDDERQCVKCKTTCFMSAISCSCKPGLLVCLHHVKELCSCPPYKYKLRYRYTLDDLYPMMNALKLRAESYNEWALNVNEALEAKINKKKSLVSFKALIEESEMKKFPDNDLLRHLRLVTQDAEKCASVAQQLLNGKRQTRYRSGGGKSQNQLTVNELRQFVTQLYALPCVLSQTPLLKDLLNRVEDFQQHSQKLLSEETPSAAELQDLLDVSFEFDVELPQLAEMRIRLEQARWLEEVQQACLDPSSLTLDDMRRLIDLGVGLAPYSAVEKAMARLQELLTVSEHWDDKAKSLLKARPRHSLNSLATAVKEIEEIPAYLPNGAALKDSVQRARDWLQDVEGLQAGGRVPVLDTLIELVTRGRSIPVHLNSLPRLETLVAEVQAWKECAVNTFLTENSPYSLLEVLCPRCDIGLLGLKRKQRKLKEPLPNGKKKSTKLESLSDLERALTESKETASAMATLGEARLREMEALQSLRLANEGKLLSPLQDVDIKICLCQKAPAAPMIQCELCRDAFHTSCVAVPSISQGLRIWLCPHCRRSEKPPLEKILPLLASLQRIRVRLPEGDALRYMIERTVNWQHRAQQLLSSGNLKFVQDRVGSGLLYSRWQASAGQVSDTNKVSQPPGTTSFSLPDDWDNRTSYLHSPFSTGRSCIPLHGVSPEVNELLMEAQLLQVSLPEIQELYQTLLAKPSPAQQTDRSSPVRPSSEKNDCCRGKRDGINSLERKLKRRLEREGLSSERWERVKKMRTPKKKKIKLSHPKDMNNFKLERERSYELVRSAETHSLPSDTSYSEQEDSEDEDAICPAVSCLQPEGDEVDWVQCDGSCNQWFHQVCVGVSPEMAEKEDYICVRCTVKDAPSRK
Method in brief: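 Inhibition is measured as reduced NADH fluorescence generation from FDH coupling to formaldehyde release. Truncated KDM5BΔAP at 200 nM final acts on H3K4me3 peptide (12.5 µM in substrate mix) in pH 7.5 HEPES buffer with Tween-20, 30 min, room temperature.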
Also: nearly all actives have a fitted effect of over 70% in size.
Potency is read from the fitted curve at half-maximal effect; tags tell the direction and shape of the fitted curve.

SMILES | Potency
Cc1ccccc1NCc1cccn1-c1nnc(N2CCOCC2)s1 | inconclusive: 15.8 µM [inhibitor, partial curve, poor fit]
COc1ccc(-c2cc(N3CCC(NC(=O)c4ccc(C#N)cc4)C3)n[nH]2)cc1 (configuration not stated) | inconclusive: 8.91 µM [inhibitor, partial curve]
Cc1ccc(-c2ccc3nnc(CNC(=O)c4cc(F)ccc4F)n3n2)cc1 | active: 25.1 µM
Cc1nc2sccn2c(=O)c1S(=O)(=O)Nc1ccc(N2CCN(S(C)(=O)=O)CC2)cc1 | inconclusive: 2.24 µM [inhibitor, partial curve, poor fit]
CC(=O)N=c1c(C#N)cc2c(=O)n3cccc(C)c3nc2n1Cc1ccco1 | inconclusive: 22.4 µM [inhibitor, partial curve, poor fit]
O=C(O)CNC(=O)CCn1ccc2ccc(F)cc21 | inactive
S=C(N/N=C1\CCCCC1C1CCCCC1)Nc1ccccc1 (configuration not stated) | inactive
Cc1cccc(Nc2nc(-c3ccccc3)c3cc(C)ccc3n2)c1 | inconclusive: 17.8 µM [inhibitor, partial curve, poor fit]
COc1ccccc1Cn1c(CNS(=O)(=O)c2ccc3c(c2)CCCC3)nc2cccnc21 | inconclusive: 17.8 µM [inhibitor, partial curve, poor fit]
CCN(CC)S(=O)(=O)c1ccc(Oc2cccc(C)c2)c(NC(=O)c2ccccn2)c1 | inconclusive: 25.1 µM [inhibitor, single point]
COc1cccc(C2CC(=O)Nc3n[nH]c(Nc4ccccc4)c32)c1 (configuration not stated) | inactive
Cc1cccc(-n2nc(-c3c(C)nc4scc(CC(=O)NCc5ccco5)n4c3=O)cc2C)c1C | active: 31.6 µM
CCCc1nc2nc(C)cc(Nc3ccccc3)n2n1 | inactive
Cn1c(Sc2cc(-c3ccccc3)c3ccccc3n2)nnc1-c1ccc(F)cc1 | inconclusive: 25.1 µM [inhibitor, single point]
COc1ccc(OC)c(C2C(C#N)=C(N)Oc3cc(O)ccc32)c1 (configuration not stated) | inactive
CCN1CCSc2ccc(C(=O)NCc3cccc(F)c3)cc21 | inconclusive: 35.5 µM [inhibitor, partial curve, poor fit]
O=C(Cn1c(=O)n(-c2ccc(Cl)cc2)c(=O)c2c3c(sc21)CCC3)c1ccc(F)cc1 | inconclusive: 12.6 µM [inhibitor, partial curve, poor fit]
CN1CC(=O)N(C2CCCNCC2)Cc2c1ncnc2N1CCN(c2ccccn2)CC1 (configuration not stated) | active: 79.4 µM
Cc1cc(C)c2c(N)c(C(=O)NN3CC(=O)N(c4ccccc4)CC3=O)sc2n1 | inconclusive: 31.6 µM [inhibitor, partial curve, poor fit]
COc1nccnc1NC1CCN(C(=O)COc2ccc(C)cc2)CC1 | active: 28.2 µM
O=C(C1CC(=O)N(C2CC2)C1)N1CCC(Oc2cccnc2)CC1 (configuration not stated) | inactive
O=C(CCNS(=O)(=O)c1ccc2c(c1)CCCC(=O)N2)NCc1ccccc1Cl | inactive
CCn1ncc(-c2cc(C(=O)O)c3ccccc3n2)c1C | inactive

SMILES | Potency
O=C(c1ccccc1F)N1CCC(n2cc(-c3nc(-c4ccccc4)no3)nn2)CC1 | inconclusive: 7.08 µM [inhibitor, single point]
COCc1ccc2c(c1)c(OC(C)(C)C(=O)NC1CC1)nn2Cc1ccccc1 | active: 35.5 µM
CC(C)c1nc2nccc(-c3ccsc3)n2n1 | active: 25.1 µM
Cc1ccc(NC2(c3nnnn3-c3ccc(C)cc3)CCCC2)cc1 | inactive
COc1ccc(OCc2nc3c4c(C)c(C)n(CCCN(C)C)c4ncn3n2)cc1 | inconclusive: 20 µM [inhibitor, partial curve, poor fit]
Cc1cc(NC(=O)CNc2cc(S(=O)(=O)N3CCOCC3)ccc2Oc2ccc(F)cc2)no1 | inactive
Nc1nc2c(ccc3ccccc32)s1 | inconclusive: 25.1 µM [inhibitor, partial curve, poor fit]
Cc1ccc(C2Cn3nnc(-c4noc(-c5ccc(C)s5)n4)c3CO2)cc1 (configuration not stated) | active: 12.6 µM
O=C(/C=C/c1ccccc1O)c1ccccc1Cl | inconclusive: 22.4 µM [inhibitor, single point]
CCOC(=O)COc1nc(-c2ccc(Cl)cc2)cc(-c2ccco2)c1C#N | inconclusive: 28.2 µM [inhibitor, partial curve, poor fit]
Cc1cc(NC(=O)C(C)C)ccc1Br | inactive
COc1cc(-c2nnc3sc(COc4ccc(C(C)(C)C)cc4)nn23)cc(OC)c1OC | inconclusive: 14.1 µM [inhibitor, single point]
O=S(=O)(NC(=S)c1ccccc1)c1ccccc1 | inconclusive: 39.8 µM [inhibitor, single point]
CCCc1ccc(OCC(=O)Nc2scc(-c3cccs3)c2C(=O)OC)cc1 | inconclusive: 12.6 µM [inhibitor, partial curve, poor fit]
O=C(c1ccc2c(c1)N(Cc1ccc(F)cc1)CCS2)N1CCN(c2ccccc2)CC1 | inconclusive: 31.6 µM [inhibitor, partial curve, poor fit]
C=CCNc1nc(-c2ccc(S(=O)(=O)N3CCCCCC3)cc2)cs1 | inconclusive: 22.4 µM [inhibitor, partial curve, poor fit]
Cc1ccc(NC(=O)c2nc3ccccc3nc2N2CCOCC2)cc1Cl | inactive
C=CCNc1nc2ccccc2nc1NS(=O)(=O)c1ccc(OC)cc1 | inconclusive: 31.6 µM [inhibitor, partial curve, poor fit]
CCc1nc2c(c(-c3ccc(Cl)cc3)n1)CN(Cc1ccc(C)cc1)CC2 | inconclusive: 22.4 µM [inhibitor, partial curve]
Cc1c(Cl)cccc1NC(=O)c1ccc(NC(=O)N2CCSc3ncccc32)cc1 | inconclusive: 31.6 µM [inhibitor, partial curve, poor fit]
Cc1cc(=O)oc2cc(OCC(=O)NCc3ccccc3)ccc12 | inconclusive: 28.2 µM [inhibitor, partial curve, poor fit]
CC(C)OC(=O)c1ccc(NC(=O)CSc2cn[nH]c(=O)n2)cc1 | inconclusive: 31.6 µM [inhibitor, single point]
COc1ccc(-c2ccc3c(c2)C(=O)N2CC[C@H](NC(=O)C4CCCC4)[C@H]2C(=O)N3)cc1 | inconclusive: 31.6 µM [inhibitor, single point]

SMILES | Potency
CCc1c(C)sc2c1CCN(C(=O)Nc1ccccc1C(=O)OC)C2c1ccc(F)cc1 (configuration not stated) | inconclusive: 28.2 µM [inhibitor, partial curve, poor fit]
CN(C)CCNC(=O)C[C@@H]1O[C@H](CNS(=O)(=O)c2ccc(Cl)cc2)[C@@H](O)[C@H]1O | inactive
Cn1cnnc1CC1CCNCC1 | inconclusive: 22.4 µM [inhibitor, single point]
O=C(Nc1ccc(Br)cc1)N1CCC(CN2CCCC2)CC1 | inconclusive: 7.94 µM [inhibitor, partial curve, poor fit]
Cc1noc2c(NCc3cnccn3)cc(-c3ccc(Cl)cc3)nc12 | inactive
COc1ccc2nc3oc(C(=O)Nc4cccc(C(F)(F)F)c4)cc3cc2c1 | inconclusive: 6.31 µM [inhibitor, partial curve, poor fit]
Cc1ccc2nc(-c3ccc(C)c(NC(=O)Cc4ccccc4)c3)oc2c1 | inconclusive: 2.51 µM [inhibitor, full curve, poor fit]
CC(c1ccccc1)C(CC(=O)O)C(=O)O (configuration not stated) | inactive
Cc1ccccc1CN1CCc2nc(N3CCN(c4ccccn4)CC3)ncc2C1 | inconclusive: 39.8 µM [inhibitor, single point]
Cc1cc(-c2ccccc2)nc(Nc2nc(C)c3ccccc3n2)n1 | inactive
Cc1c(C2=CCN(S(=O)(=O)c3ccc(Br)cc3)CC2)c2ccccc2n1CC(=O)N1CCCC1 | inconclusive: 14.1 µM [inhibitor, partial curve, poor fit]
Cc1cccc(Nc2nc(C)nc(N)c2S(=O)(=O)c2ccccc2)c1 | inconclusive: 31.6 µM [inhibitor, partial curve, poor fit]
Cc1ccc(C(=O)NCC(=O)N2CCN(c3ccccn3)CC2)cc1 | active: 28.2 µM
CCN(C(=O)Cn1c(SCC(=O)Nc2ccc(OC)cc2)nc2ccccc21)c1cccc(C)c1 | inconclusive: 25.1 µM [inhibitor, partial curve, poor fit]
O=C(c1ccc(N2CCC(CO)C2)nc1)N1CCC(Oc2cccnc2)CC1 (configuration not stated) | inconclusive: 15.8 µM [inhibitor, partial curve, poor fit]
COc1cccc(C(=O)Nc2ccc3oc(-c4cccnc4)nc3c2)c1 | inconclusive: 25.1 µM [inhibitor, partial curve, poor fit]
Cc1cc(C)n2c(Nc3ccccc3C)c(-c3cccs3)nc2n1 | inconclusive: 31.6 µM [inhibitor, single point]
CCCc1c(C)c2ccc(OCC(=O)c3ccccc3)cc2oc1=O | inactive
CCOc1ccc(C2C=C(c3cccc(OC)c3)Nc3nnnn32)cc1 (configuration not stated) | inconclusive: 15.8 µM [inhibitor, partial curve, poor fit]
COc1cc(/C=C2\COC/C(=C\c3ccc(O)c(OC)c3)C2=O)ccc1O | inconclusive: 28.2 µM [inhibitor, partial curve, poor fit]
COc1cccc(CC(=O)NCCn2ccn3nc(-c4ccc(C)c(C)c4)cc3c2=O)c1 | inactive
